# T1: IL-18 receptor (IL-18Rαβ) on cells (UniProt Q13478 19-541; O95256 20-599, limits assumed)
# T1 sequence (looked up) 1: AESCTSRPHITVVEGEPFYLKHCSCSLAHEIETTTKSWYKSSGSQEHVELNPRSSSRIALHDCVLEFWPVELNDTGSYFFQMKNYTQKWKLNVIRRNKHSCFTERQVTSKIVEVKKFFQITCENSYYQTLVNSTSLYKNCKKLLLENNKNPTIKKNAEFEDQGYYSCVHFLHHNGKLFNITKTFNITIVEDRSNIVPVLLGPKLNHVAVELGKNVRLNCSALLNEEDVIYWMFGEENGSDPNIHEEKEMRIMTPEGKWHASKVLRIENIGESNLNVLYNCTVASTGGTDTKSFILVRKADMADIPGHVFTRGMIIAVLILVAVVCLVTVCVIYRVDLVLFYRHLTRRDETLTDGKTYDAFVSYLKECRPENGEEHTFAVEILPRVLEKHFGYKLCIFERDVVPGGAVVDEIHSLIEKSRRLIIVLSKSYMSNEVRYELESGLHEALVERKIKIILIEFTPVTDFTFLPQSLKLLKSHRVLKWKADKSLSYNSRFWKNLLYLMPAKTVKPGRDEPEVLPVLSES
# T1 sequence (looked up) 2: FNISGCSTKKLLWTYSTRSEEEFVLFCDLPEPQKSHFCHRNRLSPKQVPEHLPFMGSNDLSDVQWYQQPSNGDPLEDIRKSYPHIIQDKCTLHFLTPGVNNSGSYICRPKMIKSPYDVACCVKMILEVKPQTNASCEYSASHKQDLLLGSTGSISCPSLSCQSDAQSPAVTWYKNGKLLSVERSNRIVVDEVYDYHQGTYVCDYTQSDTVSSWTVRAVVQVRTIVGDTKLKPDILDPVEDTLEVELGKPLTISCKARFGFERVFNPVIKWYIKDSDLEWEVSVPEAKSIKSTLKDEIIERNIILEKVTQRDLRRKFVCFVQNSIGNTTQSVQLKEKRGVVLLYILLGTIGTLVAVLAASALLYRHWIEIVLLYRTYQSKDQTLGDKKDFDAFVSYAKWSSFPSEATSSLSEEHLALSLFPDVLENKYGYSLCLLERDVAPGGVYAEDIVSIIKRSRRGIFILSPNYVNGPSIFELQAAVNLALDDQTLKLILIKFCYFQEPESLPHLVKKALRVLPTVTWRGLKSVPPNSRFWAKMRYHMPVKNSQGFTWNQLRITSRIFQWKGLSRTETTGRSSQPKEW
# B1: IL-18 polypeptide SEQ ID NO: 39 (E06K, K53A) (ligand)
# chain: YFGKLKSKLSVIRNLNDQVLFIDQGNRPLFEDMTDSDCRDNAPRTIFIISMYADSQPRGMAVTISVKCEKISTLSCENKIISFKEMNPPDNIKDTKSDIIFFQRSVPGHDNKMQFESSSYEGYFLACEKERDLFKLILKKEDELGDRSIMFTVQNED
# B2: IL-18 polypeptide SEQ ID NO: 36 (K53A) (ligand)
# chain: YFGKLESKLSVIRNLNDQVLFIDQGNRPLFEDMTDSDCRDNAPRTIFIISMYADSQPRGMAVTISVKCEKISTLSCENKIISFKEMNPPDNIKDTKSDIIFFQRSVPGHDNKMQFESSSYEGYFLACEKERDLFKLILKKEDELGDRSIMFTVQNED
# B3: IL-18 polypeptide SEQ ID NO: 41 (K53A, S55A) (ligand)
# chain: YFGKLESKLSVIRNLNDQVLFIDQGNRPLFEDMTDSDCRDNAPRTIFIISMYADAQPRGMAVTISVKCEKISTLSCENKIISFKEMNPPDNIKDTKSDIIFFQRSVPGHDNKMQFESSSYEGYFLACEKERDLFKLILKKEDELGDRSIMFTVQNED
# B4: IL-18 polypeptide SEQ ID NO: 53 (K53A, T63A) (ligand)
# chain: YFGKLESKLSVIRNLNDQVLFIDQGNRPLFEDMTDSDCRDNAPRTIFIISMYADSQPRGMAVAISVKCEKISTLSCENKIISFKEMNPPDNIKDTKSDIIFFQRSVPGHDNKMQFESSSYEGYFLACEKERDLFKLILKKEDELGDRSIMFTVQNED
# B5: IL-18 polypeptide SEQ ID NO: 40 (E06K, S55A) (ligand)
# chain: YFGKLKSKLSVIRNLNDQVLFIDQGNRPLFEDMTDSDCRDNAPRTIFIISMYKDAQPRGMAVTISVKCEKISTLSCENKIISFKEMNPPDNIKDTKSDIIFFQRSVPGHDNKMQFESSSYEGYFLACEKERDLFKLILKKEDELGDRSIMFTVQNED
# B6: IL-18 polypeptide SEQ ID NO: 51 (T63A) (ligand)
# chain: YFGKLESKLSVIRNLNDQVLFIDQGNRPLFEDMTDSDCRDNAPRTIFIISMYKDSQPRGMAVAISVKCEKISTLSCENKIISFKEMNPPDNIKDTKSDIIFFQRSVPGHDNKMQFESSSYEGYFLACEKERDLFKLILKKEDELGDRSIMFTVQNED
# B7: IL-18 polypeptide SEQ ID NO: 52 (E06K, T63A) (ligand)
# chain: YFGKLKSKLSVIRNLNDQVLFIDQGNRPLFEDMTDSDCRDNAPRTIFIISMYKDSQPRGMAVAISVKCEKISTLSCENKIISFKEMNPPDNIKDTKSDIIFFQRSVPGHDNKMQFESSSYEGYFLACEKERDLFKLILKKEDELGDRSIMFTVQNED
# B8: IL-18 polypeptide SEQ ID NO: 37 (S55A) (ligand)
# chain: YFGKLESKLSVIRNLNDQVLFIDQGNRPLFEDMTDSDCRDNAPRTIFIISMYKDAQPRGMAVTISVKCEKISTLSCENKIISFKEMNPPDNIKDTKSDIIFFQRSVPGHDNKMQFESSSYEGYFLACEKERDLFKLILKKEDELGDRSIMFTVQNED
# B9: IL-18 polypeptide SEQ ID NO: 38 (E06K) (ligand)
# chain: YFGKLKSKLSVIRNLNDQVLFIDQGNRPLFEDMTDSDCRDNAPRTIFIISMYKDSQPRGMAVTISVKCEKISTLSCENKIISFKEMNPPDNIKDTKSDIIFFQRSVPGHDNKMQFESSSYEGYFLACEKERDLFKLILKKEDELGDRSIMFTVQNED
# Target: T1, IL-18 receptor (IL-18Rαβ) on cells
# Test: cell-based or functional assay
row,Binder,"EC50 (pM), HEK-Blue IL-18R reporter assay [pM]"
1,B1,0.72

# Target: T1, IL-18 receptor (IL-18Rαβ) on cells
# Test: cell-based or functional assay
# Remark: another data set of the same source
row,Binder,"EC50 (nM), IFNγ induction, NK-92 cells [nM]"
1,B1,0.0192
2,B2,0.444
3,B3,1.58
4,B4,0.155
5,B5,0.067
6,B6,0.449
7,B7,0.011
8,B8,0.108
9,B9,0.0567

# Reference: patent publication US20240116997A1 (BRIGHT PEAK THERAPEUTICS, published 2024)
